Among the data in the supplement of paper PMC4604168 (melanoma cell lines) are cell count values, retold here.

Some of the results follow. Most values come without repeats; read them as rough.
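Further: cells treated in 1,536-well plates, then fixed and DAPI-stained, with nuclei counted from automated high-throughput microscope images.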

The subject of the assay is WM1745. Briefly: cell count relative to DMSO control; melanoma cells; higher = more viable cells. Particulars: library dose: standard library concentration; 72 h.
`CCN(CC)CCNC(=O)c1c(C)[nH]c(/C=C2\C(=O)Nc3ccc(F)cc32)c1C` [sunitinib] + C[C@@H]1CCN(C(=O)CC#N)C[C@@H]1N(C)c1ncnc2[nH]ccc12 [CP690550] (first compound 2 µM, partner dose 5 µM): the cell count is 51.7%. With `COc1cc([C@@H]2c3cc4c(cc3[C@@H](O[C@@H]3O[C@@H]5CO[C@@H](C)O[C@H]5[C@H](O)[C@H]3O)[C@H]3COC(=O)[C@H]23)OCO4)cc(OC)c1O` [etoposide] + Nc1ccn([C@@H]2O[C@H](CO)[C@@H](O)C2(F)F)c(=O)n1 [gemcitabine] (first compound 0.1 µM, partner dose 0.002 µM) the figure was 40.9%. With `COc1cc([C@@H]2c3cc4c(cc3[C@@H](O[C@@H]3O[C@@H]5CO[C@@H](C)O[C@H]5[C@H](O)[C@H]3O)[C@H]3COC(=O)[C@H]23)OCO4)cc(OC)c1O` [etoposide] + C=CCn1c(=O)c2cnc(Nc3ccc(N4CCN(C)CC4)cc3)nc2n1-c1cccc(C(C)(C)O)n1 [MK1775] (first compound 0.1 µM, partner dose 0.1 µM) the figure was 47.6%.

Consider `C[C@]1(O)C[C@@H](c2nc(-c3ccc4ccc(-c5ccccc5)nc4c3)c3c(N)nccn32)C1` + Cc1cc(N2CCOCC2)cc2[nH]c(-c3c(NC[C@@H](O)c4cccc(Cl)c4)cc[nH]c3=O)nc12 [BMS536924] (first compound 2 µM, partner dose 1 µM), for which the cell count was found to be 59.6%.

Compound `Cn1cnc2c(F)c(Nc3ccc(Br)cc3Cl)c(C(=O)NOCCO)cc21` [selumetinib] + O=C(CCCCCCC(=O)Nc1ccccc1)NO [vorinostat] (first compound 0.075 µM, partner dose 0.4 µM) had a cell count of 67.8%. In turn, `Cn1cnc2c(F)c(Nc3ccc(Br)cc3Cl)c(C(=O)NOCCO)cc21` [selumetinib] + CC(C)(C)c1cnc(CSc2cnc(NC(=O)C3CCNCC3)s2)o1 [SNS-032] (first compound 0.075 µM, partner dose 0.05 µM) yielded a cell count of 68.9%.

In turn, `COc1cc([C@@H]2c3cc4c(cc3[C@@H](O[C@@H]3O[C@@H]5CO[C@@H](C)O[C@H]5[C@H](O)[C@H]3O)[C@H]3COC(=O)[C@H]23)OCO4)cc(OC)c1O` [etoposide] + Cc1ccc(NC(=O)c2cccc(N(C)C)c2)cc1NC(=O)c1ccc(O)cc1 [ZM336372] (first compound 0.1 µM, partner dose 10 µM) registered a cell count of 88.7%. With `Cn1cnc2c(F)c(Nc3ccc(Br)cc3Cl)c(C(=O)NOCCO)cc21` [selumetinib] + COc1cc2c(Oc3ccc4[nH]c(C)cc4c3F)ncnc2cc1OCCCN1CCCC1 [cediranib] (first compound 0.075 µM, partner dose 2 µM) the figure was 83.2%. `COc1cc([C@@H]2c3cc4c(cc3[C@@H](O[C@@H]3O[C@@H]5CO[C@@H](C)O[C@H]5[C@H](O)[C@H]3O)[C@H]3COC(=O)[C@H]23)OCO4)cc(OC)c1O` [etoposide] + CN(C)S(=O)(=O)c1ccc2c(c1)/C(=C/c1cc3c([nH]1)CCCC3)C(=O)N2 [SU6656] (first compound 0.1 µM, partner dose 2 µM) yielded a cell count of 73.2%.

`COc1cc([C@@H]2c3cc4c(cc3[C@@H](O[C@@H]3O[C@@H]5CO[C@@H](C)O[C@H]5[C@H](O)[C@H]3O)[C@H]3COC(=O)[C@H]23)OCO4)cc(OC)c1O` [etoposide] + CCCS(=O)(=O)Nc1ccc(F)c(C(=O)c2c[nH]c3ncc(Cl)cc23)c1F [PLX4720] (first compound 0.1 µM, partner dose 0.4 µM) came in with a cell count of 75%. With `Cn1cnc2c(F)c(Nc3ccc(Br)cc3Cl)c(C(=O)NOCCO)cc21` [selumetinib] + CN(NC(=O)CC(=O)NN(C)C(=S)c1ccccc1)C(=S)c1ccccc1 [STA4783] (first compound 0.075 µM, partner dose 0.03 µM) the figure was 51.1%. Compound `CCN(CC)CCNC(=O)c1c(C)[nH]c(/C=C2\C(=O)Nc3ccc(F)cc32)c1C` [sunitinib] + O=C(CCCCCCC(=O)Nc1ccccc1)NO [vorinostat] (first compound 2 µM, partner dose 0.4 µM) displayed a cell count of 33%.

For the compound `COc1cc([C@@H]2c3cc4c(cc3[C@@H](O[C@@H]3O[C@@H]5CO[C@@H](C)O[C@H]5[C@H](O)[C@H]3O)[C@H]3COC(=O)[C@H]23)OCO4)cc(OC)c1O` [etoposide] + C[C@@H]1CCN(C(=O)CC#N)C[C@@H]1N(C)c1ncnc2[nH]ccc12 [CP690550] (first compound 0.1 µM, partner dose 5 µM), the cell count turned out to be 84.1%.
